Here are results for 67 sequences from the supplement of paper PMC10126150.

Sequences with one replicate were seen in a single cluster, so their values are uncertain.

For this data set, the system named is ATP. Briefly: switch fluorescence ratio, 500 uM ATP over buffer (Cy3 cluster intensity, sum of 5 cycles each) (fold (ratio)); higher = stronger signal-on switching upon ATP binding; sequences stand for … in TCGTCGGCAGCGTCAGATGTGTATAAGAGACAGTTTTTTTTTTTTTTTTTTTTTTTTT…TC. The note with it: aptamer strand: ATP DNA aptamer (quencher-CACCTGGGGGAGTATTGCGGAGGAAGG + anchor), 100 nM annealed; ATP concentration: 500 uM; one replicate. A digest of the protocol:
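The fluorescence ratio divides summed target-cycle Cy3 intensity by summed buffer-cycle Cy3 intensity for each cluster and is averaged per switch-domain sequence. Cy3-labelled switching-strand clusters on a modified Illumina MiSeq flow-cell were annealed to 100 nM quencher-labelled ATP aptamer, then imaged in selection buffer and again after 15 min with 500 uM ATP at 22 °C. Five such cycles were run, with NaOH stripping and re-annealing between them, and clusters outside 100-1000 RFU were excluded.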
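Further: ATP exposure 15 min at 22 °C before imaging.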

Take GATCAGTGGG: the switch fluorescence ratio stood at 0.998. Under CTGCGTTAGC stands 1.01; under CTCGCACGCG, 1.04; under AGAGGACGGC, 1.06. As to AGGTGGTTGG, the switch fluorescence ratio turned out to be 0.981. For the sequence TAGAGAAGGT, the switch fluorescence ratio came out at 1.01. Regarding TTGCAGCCTA, the switch fluorescence ratio came out at 1.54.

As for TCTAAATAAT, the switch fluorescence ratio worked out at 1.03.

Consider GGGGTTTATT, for which the switch fluorescence ratio came to 1. As to TAGATTGCTA, the switch fluorescence ratio amounted to 0.967. Consider CCCGGAGTGG, for which the switch fluorescence ratio is 1.05.

Take CTCTCATTTG: the switch fluorescence ratio is 0.972. Under AGTTCATTAC stands 1.05; under TCGCAGCACT, 3.73; under GTTTACGTTA, 1.19.

For GCCCGGTACG, the switch fluorescence ratio came out at 1.01. Under CTTCCTCGGT stands 3.01; under GAGCTAACGA, 1.04. Turning to GTGGACAGTA, the switch fluorescence ratio was determined as 0.978. For the sequence TGAGAGATAT, the switch fluorescence ratio is 0.982. Consider GCGAGTCGCA, for which the switch fluorescence ratio came to 1. On to TTATATTACA, for which the switch fluorescence ratio is 1.02.

Turning to GTCGATGCTA, the switch fluorescence ratio was 1.02. Under GTAGTAATGG stands 2.58; under CTAATTAACT, 0.984; under CCTGACGGAC, 1.64.

As to CGATCCTCGG, the switch fluorescence ratio was determined as 1.01. Under GACACTCTAT stands 1.06. Turning to TTAGAGCAAC, the switch fluorescence ratio was 1.13. In the case of GGCATCGATG, the switch fluorescence ratio turned out to be 1.04.

CTCAAGAGGT: the switch fluorescence ratio was found to be 1.02. Under TAGGCTGGCG stands 0.966; under TAAACAAGAT, 1.39. Turning to TTAAATGCT, the switch fluorescence ratio came to 1.01. With TGGAGCATGG, the switch fluorescence ratio was 0.982. Under TGCGCTTACC stands 1.45. Under CTCGTGGAAG stands 1.06. Under ATCCTCAGCC stands 1.64. As to TGATGTAGTT, the switch fluorescence ratio came to 0.991. As to TGCGTGCTCT, the switch fluorescence ratio is 1.02. Under GTAACAGATG stands 0.943; under GCAAGCGCTT, 0.99. Under GTTAGGAGAG stands 0.933; under ATATCTCTAA, 1.01.

With TCCAAAACTA, the switch fluorescence ratio was determined as 1.06. GATAGTAGGA: the switch fluorescence ratio was determined as 1. Regarding GTTGAAGTTC, the switch fluorescence ratio was 1.02. On to TTGTAATGCT, for which the switch fluorescence ratio stood at 1.22. Regarding CTGGATTAGA, the switch fluorescence ratio was 1.05. Regarding TAATCAG, the switch fluorescence ratio amounted to 0.973. Under CTTCTACTGC stands 1.06; under TCATGTGGGA, 0.992. As to GGATGGGCCA, the switch fluorescence ratio is 0.976. Under AAAAGGGCG stands 1.03; under GTTTTCGTTG, 1.02. As to GAACCGTAAG, the switch fluorescence ratio amounted to 0.979. Under GGTCAAGCCT stands 1.05; under AAAGACGGTG, 0.983.

In the case of CAATCCAGGC, the switch fluorescence ratio is 1.03. Under GTGCGGGTCC stands 0.985; under TGGGCCGTGT, 1.05; under GCTGTCGTTG, 1.02. Under GCGGTTCAAG stands 0.982. Under CTCAATGTCT stands 0.975; under TTTCCTAGG, 0.988. For TGTTATGGTT, the switch fluorescence ratio is 1.01. Under TGACTGTACT stands 1.53.
